From the supplement of paper PMC9588766
Structures can show the parent of a compound that is named as a salt. Over roughly 1,900 compounds, “cell viability of compound + 1 nM pemigatinib relative to pemigatinib-only (DMSO) wells” has its median near 0.95; the lowest 2% begin near 0.22. The list shows a part of the results.

test system: PDC-DUC18828; assay: cell viability of compound + 1 nM pemigatinib relative to pemigatinib-only (DMSO) wells (fraction); PDC-DUC18828 is a patient-derived cholangiocarcinoma cell line; higher = less growth inhibition; conditions: first compound 1 µM; pemigatinib concentration 1 nM; 72 h
Procedure: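 Selleck Bioactive library screen in the patient-derived FGFR2 fusion-positive ICC cell line PDC-DUC18828 (500 cells/well). Each compound was tested at 1 uM with 1 nM pemigatinib, in triplicate, for 72 h. Viability was read by CellTiter-Glo and normalised to plate DMSO controls. Value is the paper's averaged normalised viability.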

SMILES	cell viability
Cc1ccc(C)c(OCCCC(C)(C)C(=O)O)c1 [Gemfibrozil] + CCN1C(=O)N(c2c(F)c(OC)cc(OC)c2F)Cc2cnc3[nH]c(CN4CCOCC4)cc3c21 [pemigatinib]	1.04
COc1ccc([C@@H]2Sc3ccccc3N(CCN(C)C)C(=O)[C@@H]2OC(C)=O)cc1 [Diltiazem HCl] + CCN1C(=O)N(c2c(F)c(OC)cc(OC)c2F)Cc2cnc3[nH]c(CN4CCOCC4)cc3c21 [pemigatinib]	0.936
Cc1cn([C@H]2C[C@H](N=[N+]=[N-])[C@@H](CO)O2)c(=O)[nH]c1=O [Zidovudine] + CCN1C(=O)N(c2c(F)c(OC)cc(OC)c2F)Cc2cnc3[nH]c(CN4CCOCC4)cc3c21 [pemigatinib]	0.971
CC(=O)c1cc([N+](=O)[O-])c(Sc2ccc(F)cc2F)s1 + CCN1C(=O)N(c2c(F)c(OC)cc(OC)c2F)Cc2cnc3[nH]c(CN4CCOCC4)cc3c21 [pemigatinib]	0.952
NS(=O)(=O)Cc1noc2ccccc12 [Zonisamide] + CCN1C(=O)N(c2c(F)c(OC)cc(OC)c2F)Cc2cnc3[nH]c(CN4CCOCC4)cc3c21 [pemigatinib]	1.02
C=CCc1ccc(O)c(-c2cc(CC=C)ccc2O)c1 [Magnolol] + CCN1C(=O)N(c2c(F)c(OC)cc(OC)c2F)Cc2cnc3[nH]c(CN4CCOCC4)cc3c21 [pemigatinib]	0.903
COc1ccc2c(c1)C(=O)N(CCc1ccc(S(=O)(=O)NC(=O)NC3CCCCC3)cc1)C(=O)C2(C)C [Gliquidone] + CCN1C(=O)N(c2c(F)c(OC)cc(OC)c2F)Cc2cnc3[nH]c(CN4CCOCC4)cc3c21 [pemigatinib]	0.869
COc1ccc(C[C@H](NC(=O)[C@H](C)NC(=O)CN2CCOCC2)C(=O)N[C@@H](Cc2ccccc2)C(=O)[C@@]2(C)CO2)cc1 + CCN1C(=O)N(c2c(F)c(OC)cc(OC)c2F)Cc2cnc3[nH]c(CN4CCOCC4)cc3c21 [pemigatinib]	0.0172
CC(C[N+](C)(C)C)OC(N)=O (stereo not given) [Bethanechol chloride] + CCN1C(=O)N(c2c(F)c(OC)cc(OC)c2F)Cc2cnc3[nH]c(CN4CCOCC4)cc3c21 [pemigatinib]	0.964
Cc1c(NC(=O)OC[C@@H]2COCCN2)cn2ncnc(Nc3ccc4c(cnn4Cc4cccc(F)c4)c3)c12 + CCN1C(=O)N(c2c(F)c(OC)cc(OC)c2F)Cc2cnc3[nH]c(CN4CCOCC4)cc3c21 [pemigatinib]	0.903
Cc1ccc2nc(NCCN)c3ncc(C)n3c2c1 + CCN1C(=O)N(c2c(F)c(OC)cc(OC)c2F)Cc2cnc3[nH]c(CN4CCOCC4)cc3c21 [pemigatinib]	1.03
COc1ccc(CCc2nc3cc(-c4c(C)noc4C)ccc3n2C[C@H](C)N2CCOCC2)cc1Cl + CCN1C(=O)N(c2c(F)c(OC)cc(OC)c2F)Cc2cnc3[nH]c(CN4CCOCC4)cc3c21 [pemigatinib]	0.913
O=C(O)c1cc2cccc([N+](=O)[O-])c2[nH]1 + CCN1C(=O)N(c2c(F)c(OC)cc(OC)c2F)Cc2cnc3[nH]c(CN4CCOCC4)cc3c21 [pemigatinib]	0.912
CC(=O)C1=C(O)C=C2Oc3c(C(C)=O)c(O)c(C)c(O)c3C2(C)C1=O (single isomer, unassigned; (+)) [(+)-Usniacin] + CCN1C(=O)N(c2c(F)c(OC)cc(OC)c2F)Cc2cnc3[nH]c(CN4CCOCC4)cc3c21 [pemigatinib]	1.06
CNCc1ccc(-c2[nH]c3cc(F)cc4c3c2CCNC4=O)cc1 + CCN1C(=O)N(c2c(F)c(OC)cc(OC)c2F)Cc2cnc3[nH]c(CN4CCOCC4)cc3c21 [pemigatinib]	0.958
CCCNC(C)C(=O)Nc1c(C)csc1C(=O)OC (stereo not given) [Articaine HCl] + CCN1C(=O)N(c2c(F)c(OC)cc(OC)c2F)Cc2cnc3[nH]c(CN4CCOCC4)cc3c21 [pemigatinib]	0.942
CN(C)c1ccc(-c2nc3ncc(Cl)c(N4CCN(CC(=O)Nc5nccs5)CC4)c3[nH]2)cc1 + CCN1C(=O)N(c2c(F)c(OC)cc(OC)c2F)Cc2cnc3[nH]c(CN4CCOCC4)cc3c21 [pemigatinib]	1.02
Oc1nc(-c2ccc(C(F)(F)F)cc2)nc2c1CSCC2 + CCN1C(=O)N(c2c(F)c(OC)cc(OC)c2F)Cc2cnc3[nH]c(CN4CCOCC4)cc3c21 [pemigatinib]	0.919
Cc1nc2ccc(NC(=O)Nc3ccnc4cccnc34)cc2o1 + CCN1C(=O)N(c2c(F)c(OC)cc(OC)c2F)Cc2cnc3[nH]c(CN4CCOCC4)cc3c21 [pemigatinib]	0.964
NC(=O)N1c2ccccc2CC(=O)c2ccccc21 [Oxcarbazepine] + CCN1C(=O)N(c2c(F)c(OC)cc(OC)c2F)Cc2cnc3[nH]c(CN4CCOCC4)cc3c21 [pemigatinib]	0.963

SMILES	cell viability
NC1=NCC2c3ccccc3Cc3ccccc3N12 (stereo not given) [Epinastine HCl] + CCN1C(=O)N(c2c(F)c(OC)cc(OC)c2F)Cc2cnc3[nH]c(CN4CCOCC4)cc3c21 [pemigatinib]	0.912
O=C(c1ccc(F)cc1)N1CCC[C@H](c2nc(-c3ccc(F)cc3)no2)C1 + CCN1C(=O)N(c2c(F)c(OC)cc(OC)c2F)Cc2cnc3[nH]c(CN4CCOCC4)cc3c21 [pemigatinib]	0.976
Cc1ccc(Cl)cc1N(CC(=O)Nc1c(F)cccc1F)S(C)(=O)=O + CCN1C(=O)N(c2c(F)c(OC)cc(OC)c2F)Cc2cnc3[nH]c(CN4CCOCC4)cc3c21 [pemigatinib]	1.03
CN(C)c1cc(NC(=O)CNC(C)(C)C)c(O)c2c1C[C@H]1C[C@H]3[C@H](N(C)C)C(O)=C(C(N)=O)C(=O)[C@@]3(O)C(O)=C1C2=O [Tigecycline] + CCN1C(=O)N(c2c(F)c(OC)cc(OC)c2F)Cc2cnc3[nH]c(CN4CCOCC4)cc3c21 [pemigatinib]	1.01
CCNc1nc(Nc2cc(F)c(C(=O)N3CCOCC3)cc2OC)ncc1C(F)(F)F + CCN1C(=O)N(c2c(F)c(OC)cc(OC)c2F)Cc2cnc3[nH]c(CN4CCOCC4)cc3c21 [pemigatinib]	0.954
COc1cc(NS(=O)(=O)c2ccc(N)cc2)nc(OC)n1 [Sulphadimethoxine] + CCN1C(=O)N(c2c(F)c(OC)cc(OC)c2F)Cc2cnc3[nH]c(CN4CCOCC4)cc3c21 [pemigatinib]	1.01
CC1(C)O[C@@H]2[C@@H](CO[C@@]3(COS(N)(=O)=O)OC(C)(C)O[C@@H]23)O1 [Topiramate] + CCN1C(=O)N(c2c(F)c(OC)cc(OC)c2F)Cc2cnc3[nH]c(CN4CCOCC4)cc3c21 [pemigatinib]	0.979
O=C1N=C(O)NC1(c1ccccc1)c1ccccc1 [Phenytoin sodium] + CCN1C(=O)N(c2c(F)c(OC)cc(OC)c2F)Cc2cnc3[nH]c(CN4CCOCC4)cc3c21 [pemigatinib]	0.969
O=C1Nc2ccc(I)cc2/C1=C/c1cc(Br)c(O)c(Br)c1 + CCN1C(=O)N(c2c(F)c(OC)cc(OC)c2F)Cc2cnc3[nH]c(CN4CCOCC4)cc3c21 [pemigatinib]	0.92
O=C(NCCCNc1nc(Nc2cccc(NC(=O)N3CCCC3)c2)ncc1I)c1cccs1 + CCN1C(=O)N(c2c(F)c(OC)cc(OC)c2F)Cc2cnc3[nH]c(CN4CCOCC4)cc3c21 [pemigatinib]	0.658
CN(Cc1ccc(C(C)(C)C)cc1)Cc1cccc2ccccc12 [Butenafine HCl] + CCN1C(=O)N(c2c(F)c(OC)cc(OC)c2F)Cc2cnc3[nH]c(CN4CCOCC4)cc3c21 [pemigatinib]	0.87
Cc1cccc(-c2[nH]ncc2-c2ccc3ncccc3n2)n1 + CCN1C(=O)N(c2c(F)c(OC)cc(OC)c2F)Cc2cnc3[nH]c(CN4CCOCC4)cc3c21 [pemigatinib]	1.02
NS(=O)(=O)c1ccc(NC(=O)Nc2ccc(F)cc2)cc1 + CCN1C(=O)N(c2c(F)c(OC)cc(OC)c2F)Cc2cnc3[nH]c(CN4CCOCC4)cc3c21 [pemigatinib]	0.902
S=c1[nH]cnc2nc[nH]c12 [Mercaptopurine (6-MP)] + CCN1C(=O)N(c2c(F)c(OC)cc(OC)c2F)Cc2cnc3[nH]c(CN4CCOCC4)cc3c21 [pemigatinib]	0.976
O=c1[nH]c(=O)n([C@H]2C[C@H](O)[C@@H](CO)O2)cc1C(F)(F)F [Trifluridine] + CCN1C(=O)N(c2c(F)c(OC)cc(OC)c2F)Cc2cnc3[nH]c(CN4CCOCC4)cc3c21 [pemigatinib]	0.952
Cn1cncc1[C@@](N)(c1ccc(Cl)cc1)c1ccc2c(c1)c(-c1cccc(Cl)c1)cc(=O)n2C [Tipifarnib] + CCN1C(=O)N(c2c(F)c(OC)cc(OC)c2F)Cc2cnc3[nH]c(CN4CCOCC4)cc3c21 [pemigatinib]	0.915
Cc1cc(C#N)cc(C)c1Oc1nc(Nc2ccc(C#N)cc2)nc(N)c1Br [Etravirine (TMC125)] + CCN1C(=O)N(c2c(F)c(OC)cc(OC)c2F)Cc2cnc3[nH]c(CN4CCOCC4)cc3c21 [pemigatinib]	0.915
Cc1cc(F)c(Nc2ncnc3cc(OCc4ccccc4)ccc23)cc1O + CCN1C(=O)N(c2c(F)c(OC)cc(OC)c2F)Cc2cnc3[nH]c(CN4CCOCC4)cc3c21 [pemigatinib]	0.9
O=C(NNc1ccccc1)c1ccncc1 + CCN1C(=O)N(c2c(F)c(OC)cc(OC)c2F)Cc2cnc3[nH]c(CN4CCOCC4)cc3c21 [pemigatinib]	0.945
Cc1nc2c(O)cccc2c(=O)[nH]1 + CCN1C(=O)N(c2c(F)c(OC)cc(OC)c2F)Cc2cnc3[nH]c(CN4CCOCC4)cc3c21 [pemigatinib]	0.967
